According to the supplement of paper PMC12632987:
The full ranking holds about 2,300 sequences; the median of “median log2 fold change of GCK-ALFA target abundance (FLAG IP / Myc IP barcode read proportion)” is about 0.095, and the lowest 2% start at about -0.47. The list shows a part of the results.

B1: LC3A_141_356 (protein)
chain: KELKLTYTIEAETPEEAIKKLEEVYEEIKKLMEEKGFKKVEITVTIKTKNKETGETETKTIKETVTKENIDLVFDSLIIEVASAALKGKVTVTVEATLIE
B2: LC3A_3_1827 (protein)
chain: LEERIEETEELLREAGHSEETIEAFREAAELLKEKGYEKALETLIELLRENIDMPSDLLLEFLKEVKELVETSDLSEEELSEEIKKLAELYRNEYEIEEL
B3: LC3A_free_8_2442 (protein)
chain: SNQELVDKSLKLLDELEKEIEKWAKELGIDETDLGELLLLVGSAISDVISNSDKSPEEIFKILKEDLEEILEEAKKISEELYEKIKEKIEKILKEVEKLL
B4: LC3A_28_1241 (protein)
chain: MEIEKQIEEAKKKVEEAVKKGEEALVELTVDGNATPEDVDKVIEAMEEIAELGKDLPSLDIIVNVSAGVPQEHIDKLADAGEEIEKKYPNVTVIIALEER
B5: LC3A_17_531 (protein)
chain: KEELKKELEELLKEAKELIKEIKKRDPEAAKKLEKQLKEAEKLLKEGKLKEAAEQLAKLAREAADVLDATPWEDPIQQEVLIMEANGLEIEAIGILLKLE
B6: LC3A_28_908 (protein)
chain: GSSLKELEEALKKVEAAVAAGDTEPLVLEVTAPSNQEDVEKFLELLERLAEEASKLPGVSIIIDIDESVSQENKDKIIDKAEELEKKYPNVTVIIALPES
B7: LC3A_28_1106 (protein)
chain: SRVDEDNEKALAEAREAAAAGEPAVVTLNVYETDTEEDIEKKLETLREIAEILADLPGAAIIVNFIGKIKQEHIDKVADLGEEIEERYPNVTVILALDEE
B8: LC3A_3_1404 (protein)
chain: FEEIKAEILEELKKMGASEEVLEAAKKVMEKLEERGYLEAARELLREVKELKNASDEILLWFFEEVLEYLETNDDSEEEVVEFIREEARIAKSEQEIEEL
B9: LC3A_free_0_2096 (protein)
chain: TTVVVEVVAISKEKLSEEQVKKLKEALEKKAKEISEKRGWKTKVEVSEVDGRTIFTFTAESEKATLDEGLELEREIADFVEEKFKELGAEATIYTSVYEV
B10: LC3A_45_1982 (protein)
chain: MWEATIDLLVPRELAEEAYAILKEAGAELVARHGDDLKVDWDALDASYEASRDEEEVYLRLNIYHPDKQVALDSAVEIVDRLEERLGRKVAAIISVKEVP
B11: LC3A_free_39_2202 (protein)
chain: SSEREREYEERLLELAAKAGEEALEEAKRLLELVKGNPELVETVLELVERAVKEGADVLELLRRLKELVEELLKKGKSEEEIIEELKEEGRVIIELIPIE
B12: LC3A_free_39_2224 (protein)
chain: SQEEIEKLIKEVAKESGVDLEELRAKIEEIKKVAGLSDEQILEIVKGILEAVKAGADAKEIVDESLALAKELKAQGKSPEEIKEALLELIKDYRNLVPLD
B13: LC3A_28_835 (protein)
chain: SHAEEQIKKAKEQLEKAKETKEDVLVEITITSSMTPEEAKEIMDAVEEEISKLDKSIKVSILVLGEEELSQEVIDVIADKGEEIEKKFPNVNFIIALPEP
B14: LC3A_17_589 (protein)
chain: NEKIKKELERLLKELEELIKKAKELGLPEAEKVEKLLEEAKKALEEGDLKKAAEILKEAADLLADALSEVEEEKGSEASVLEMEANGLALEAEGILLKLE
B15: LC3A_28_1113 (protein)
chain: SAIDKNIEAALAEAKEAAARGEPVVVTIKVKATDSQEDIDKVIKALYEIAEILKDVKDAAIIIDLDGKIPQEHLNKLADAAEEIEKKYPNITVIIALDEE
B16: LC3A_3_1514 (protein)
chain: MEEIKKETLELLKKAGASEEVLELAEEALNLLIEKGYEEAAKELAEEMKKLANLPDELLLEFLKDVIELVKTSNLSEEELIKEIKELAKVYENESEIEEL
B17: LC3A_147_449 (protein)
chain: MLYEITVDALFKNDPALAEEVAEQLKAIAEKHGGEVEVEFEEEQVSPTTTEYFLNVTITFEDKAKAQAAETEIAALLDETAAKHPDKFLGAILSFEEVEP
B18: LC3A_28_793 (protein)
chain: SEIEATLAAARAEAEEARARGEEAVIEVRVPKGTTPEDAERIVEGLREIAEAAADLPRLSFVIDLERGVSQEVIDILARGGEEIEERYPNVSVVIALEEE
B19: LC3A_102_161 (protein)
chain: KVEEEIKKIIEEEVKKMKEFLEKEKSLTEEEKEEILKIVKEALEALAEILLSEAQHGFEDIEALDKLLKAKEELKKYPEKVKKKAEEILEEAKKKIEELL
B20: LC3A_3_1487 (protein)
chain: MEELLERAREVLEKRGASEEQIAAVLADLAAVLARGYERTVEEFIRLLEEYPDLSPEKIVAAAGTIRDVVEEEDLTEEEAVEKTREIVEDVHEIEELEEE
B21: LC3A_free_46_2348 (protein)
chain: YKAEILIDLLAKDKETLEKAVKEIVEEAKKIAEKYNLELEIKVKIEKLEDGSYYAEIEITLKGETEEDLQKAVNELINKIEEIAKKYGVAAIISYEIIKE
B22: LC3A_3_1529 (protein)
chain: FEAIRAEVLALAKEAGADPETIATADEALDLLEARGYENAAKTFLEEVKELAGISPETLAEFIRDVLELLLTEDLDEETLSKRIKEIARTAKNAAEIEEL
B23: LC3A_28_691 (protein)
chain: SAIDETIARIRAQAEAALAAGEEALLEVTVPATATQEDIDRLIATIREAVERLAGVGKVYIVVDVESGVAQENITRLADALDELEAEYPNVTVVIALDED
B24: LC3A_28_1263 (protein)
chain: NELEKSLEEALKKAKEAVEKGEEALIEIKIPAGVTEEEVEKIIETLEEIAELTKSLPSVTIILDVERGVSQEHIDKLADKAEELEKKYPNLTIIIALEEE
B25: LC3A_28_717 (protein)
chain: SMLEESIEKALKEAKEAAEAGEEVVIEIYIPGDATEEDIEKVIKTLEEIAEILKDLKSQSIVVDVDGKVKQEHIDKIADKAEEIEEKYPNVTVIIALDEN
B26: LC3A_132_256 (protein)
chain: SEELYERFLEEAKELIDKIVDALKAGKDPSPYIKELDELAEEAAEKLSLEELERLVEEAEEYAEERFAERLDPNDPEARRALDIVEMILDSALIEAELRA
B27: LC3A_132_264 (protein)
chain: SAELLEKALAELKAIADALVAALAAGEDPWPHVRRLEETFEEYAKKLSLEETEKLAAEVLAHLEALAAARLDPNDPEARRVLDIVEMLFEGVLIEKELEE
B28: LC3A_28_864 (protein)
chain: SKTKESADAALEEAKKAKENGESTVITIKIYGKASPEEVDYVIEALKEIAEILKDIPNQGIIISLEEPLDPEQLKKLADAADEVEKKYPNVTVIIALPEE
B29: LC3A_3_1894 (protein)
chain: LEEELKRTEKLLKEAGASEEVLKKFREAFEKLLKRGYEEAAKTLIEETEKLKDASDEILLWFLEEVLEKIEKEDLNEEELIKKIKEIASTALNESEIIEL

Target: MAP1LC3A, Q9H492
Assay: median log2 fold change of GCK-ALFA target abundance (FLAG IP / Myc IP barcode read proportion) (log2 ratio); each designed protein is fused to an ALFA-tag nanobody in HEK293 cells to bring the named protein to FLAG-tagged glucokinase (GCK); Myc marks an untargeted standard; higher = target protein stabilised (more abundant)
Conditions: target protein: 3xFLAG-MCP-GCK-ALFA reporter; HEK293 landing pad (RPLP)
In short: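 Binders fused to an ALFA nanobody were recombined as a library into HEK293 landing-pad cells, which were induced with 2 μg mL^−1 doxycycline and then transfected to express a FLAG-tagged target and a Myc-tagged standard. After 48 h, circular RNA barcodes recovered by anti-FLAG and anti-Myc immunoprecipitation of lysates were reverse transcribed, amplified and sequenced. Each binder's target abundance is the median log2 ratio of FLAG to Myc barcode read proportions, from barcodes present at ≥10^−7 in both replicates, binders carrying ≥3 barcodes per replicate, a 10^−6 pseudocount and pooled replicates.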

Row | Binder | median log2 fold change
1 | B1 | 0.215
2 | B2 | 0.154
3 | B3 | 0.18
4 | B4 | 0.309
5 | B5 | -0.0226
6 | B6 | -0.123
7 | B7 | -0.102
8 | B8 | 0.00419
9 | B9 | -0.0514
10 | B10 | 0.0214
11 | B11 | 0.0985
12 | B12 | 0.303
13 | B13 | 0.137
14 | B14 | 0.375
15 | B15 | 0.157
16 | B16 | 0.233
17 | B17 | -0.603
18 | B18 | 0.221
19 | B19 | 0.458
20 | B20 | 0.0753
21 | B21 | -0.204
22 | B22 | 0.174
23 | B23 | -0.0472
24 | B24 | 0.201
25 | B25 | 0.0803
26 | B26 | -0.217
27 | B27 | -0.401
28 | B28 | 0.188
29 | B29 | 0.471
